# In patent US20170253656A1:
# Where a chain is given by its changes, count along the chain named.
# B1: 1275-C10 light chain paired with HC 1251-A06 (SEQ ID NO: 310) (antibody)
# heavy: MQVQLVESGGGVVQPGRSLRLSCAASGFDFSSYGMHWVRQAPDKGLEWVAVIWDDGSDRYYADSVKGRFTISRDNSKNTLYLQMNSLRAEDTAVYYCARGGTRVLGAIHGTDVWGQGTTVTVSS[human IgG1 constant region omitted]GGSHHHHHH
# VL: DIQMTQSPSSLSASVGDRVTITCRASQGVSSWLAWYQQKPEKAPKSLIYSARYLQSGVPSRFSGSGSGTDFTLTISSLQPEDFATYYCQQYNLYPLTFGGGTKVEIK
# B2: 1275-D10 light chain paired with HC 1251-A06 (SEQ ID NO: 310) (antibody, human IgG1)
# heavy: B1 heavy
# VL: B1 VL with S30F, S50N, R52T, Y53Q, N92Y, L93Y
# B3: 1275-D01 light chain paired with HC 1251-A06 (SEQ ID NO: 310) (antibody, human IgG1)
# heavy: B1 heavy
# VL: B1 VL with V29I, S30G, S31R, S50G, A51R, R52S, Y53S, L93I
# B4: 1275-G02 light chain paired with HC 1251-F07 (SEQ ID NO: 311) (antibody, human IgG1)
# heavy: B1 heavy with D29T, Y33H, D58N, R59E, Y60V, V104I, L105R, A107L, I108R, H109Y
# VL: B1 VL with V29L, S30G, W32F, S50L, A51G, R52N, Y53L, S56I, L93A
# B5: HC 1251_A06 (g)/LC 1275_C10 (wt) (antibody, human IgG1, kappa)
# heavy: MQVQLVESGGGVVQPGRSLRLSCAASGFDFSSYGMHWVRQAPGKGLEWVAVIWDDGSDRYYADSVKGRFTISRDNSKNTLYLQMNSLRAEDTAVYYCARGGTRVLGAIHGTDVWGQGTTVTVSS[human IgG1 constant region omitted]
# light: MDIQMTQSPSSLSASVGDRVTITCRASQGVSSWLAWYQQKPEKAPKSLIYSARYLQSGVPSRFSGSGSGTDFTLTISSLQPEDFATYYCQQYNLYPLTFGGGTKVEIKRTVAAPSVFIFPPSDEQLKSGTASVVCLLNNFYPREAKVQWKVDNALQSGNSQESVTEQDSKDSTYSLSSTLTLSKADYEKHKVYACEVTHQGLSSPVTKSFNRGEC
# B6: HC 1251_A06 (g)/LC 1337_A09 (wt) (antibody, human IgG1, kappa)
# heavy: B5 heavy
# light: B5 light with V30I, S31G, S51A, R53D, Y54R, N93H, L94T
# B7: HC 1251_A06 (g)/LC 1337_A10 (wt) (antibody, human IgG1, kappa)
# heavy: B5 heavy
# light: B5 light with V30I, L34V, S51G, A52S, R53S, Y54R, L94T
# B8: HC 1251_B08 (g)/LC 1337_A07 (wt) (antibody, human IgG1, kappa)
# heavy: B5 heavy with D29N, S32D, D54Y, D58I, R59S, R103V, V104E, L105H, I108V, H109Y
# light: B5 light with V30I, L34V, S51G, R53S, Y54R, N93H, L94T
# B9: HC 1251_B08 (g)/LC 1275_C10 (wt) (antibody, human IgG1, kappa)
# heavy: B5 heavy with D29N, S32D, D54Y, D58I, R59S, R103V, V104E, L105H, I108V, H109Y
# light: B5 light
# B10: HC 1251_B08 (g)/LC 1337_A09 (wt) (antibody, human IgG1, kappa)
# heavy: B5 heavy with D29N, S32D, D54Y, D58I, R59S, R103V, V104E, L105H, I108V, H109Y
# light: B5 light with V30I, S31G, S51A, R53D, Y54R, N93H, L94T
# B11: HC 1251_A06 (g)/LC 1337_A09 (g) (antibody, human IgG1, kappa)
# heavy: B5 heavy
# light: B5 light with L12V, V30I, S31G, E42G, S47L, S51A, R53D, Y54R, N93H, L94T
# B12: HC 1251_A06 (g)/LC 1275_C10 (g) (antibody, human IgG1, kappa)
# heavy: B5 heavy
# light: B5 light with L12V, E42G, S47L
# B13: HC 1251_A06 (g)/LC 1337_A07 (g) (antibody, human IgG1, kappa)
# heavy: B5 heavy
# light: B5 light with L12V, V30I, L34V, E42G, S47L, S51G, R53S, Y54R, N93H, L94T
# B14: HC 1251_A06 (g)/LC 1337_A07 (wt) (antibody, human IgG1, kappa)
# heavy: B5 heavy
# light: B5 light with V30I, L34V, S51G, R53S, Y54R, N93H, L94T
# B15: HC 1251_B08 (g)/LC 1337_A07 (g) (antibody, human IgG1, kappa)
# heavy: B5 heavy with D29N, S32D, D54Y, D58I, R59S, R103V, V104E, L105H, I108V, H109Y
# light: B5 light with L12V, V30I, L34V, E42G, S47L, S51G, R53S, Y54R, N93H, L94T
# B16: HC 1251_B08 (g)/LC 1275_C10 (g) (antibody, human IgG1, kappa)
# heavy: B5 heavy with D29N, S32D, D54Y, D58I, R59S, R103V, V104E, L105H, I108V, H109Y
# light: B5 light with L12V, E42G, S47L
# B17: HC 1251_B08 (g)/LC 1337_A10 (g) (antibody, human IgG1, kappa)
# heavy: B5 heavy with D29N, S32D, D54Y, D58I, R59S, R103V, V104E, L105H, I108V, H109Y
# light: B5 light with L12V, V30I, L34V, E42G, S47L, S51G, A52S, R53S, Y54R, L94T
# B18: HC 1251_B08 (g)/LC 1337_A09 (g) (antibody, human IgG1, kappa)
# heavy: B5 heavy with D29N, S32D, D54Y, D58I, R59S, R103V, V104E, L105H, I108V, H109Y
# light: B5 light with L12V, V30I, S31G, E42G, S47L, S51A, R53D, Y54R, N93H, L94T
# B19: HC 1251_A06 (g)/LC 1337_A10 (g) (antibody, human IgG1, kappa)
# heavy: B5 heavy
# light: B5 light with L12V, V30I, L34V, E42G, S47L, S51G, A52S, R53S, Y54R, L94T
# B20: HC 1251_B08 (g)/LC 1337_A10 (wt) (antibody, human IgG1, kappa)
# heavy: B5 heavy with D29N, S32D, D54Y, D58I, R59S, R103V, V104E, L105H, I108V, H109Y
# light: B5 light with V30I, L34V, S51G, A52S, R53S, Y54R, L94T
# Molecular target: CD74 on CD74 positive SU-DHL-6 cells, P04233
# Assay: cell-based or functional assay
Binder,2nd ADC Cell Killing IC50,2ND ADC CELL KILL ACTIVITY IC50
B1,3.4 pM,–
B2,7 pM,–
B3,0.3 pM,–
B4,20 pM,–
B5,–,10 pM
B6,–,4 pM
B7,–,2 pM
B8,–,13 pM
B9,–,18 pM
B10,–,25 pM
B11,–,2 pM
B12,–,7 pM
B13,–,5 pM
B14,–,1 pM
B15,–,6 pM
B16,–,11 pM
B17,–,7 pM
B18,–,10 pM
B19,–,5 pM
B20,–,3 pM
